Measured values reported in PubChem BioAssay AID1645887 (National Center for Advancing Translational Sciences (NCATS), 2021).
“And” between values parts separate entries of the source, which are not always exact repeats. Identical values can stand only once. Screen size: about 16,000 compounds; about 40 (0.2%) were called active. About 1% were inconclusive and are not listed. The call rests on the fitted dose curve; in most records, active means well fitted activation curve with a large enough effect; inconclusive means small, poorly fitted or top-dose-only effect, or another doubt; inactive means no such curve, though single readings can be large or run the other way. This is one part of the list.

Each molecule was assayed against Rap guanine nucleotide exchange factor 4 (Homo sapiens) (UniProt Q8WZA2) (assay: Validation qHTS for agonist of cAMP-regulated guanine nucleotide exchange factor 4 (EPAC2)). Conditions: EPAC2 Rap1B BODIPY-GDP exchange, fluorescence; activation: active compounds read high.
UniProt Q8WZA2, sequence (Q8WZA2 whole entry, looked up): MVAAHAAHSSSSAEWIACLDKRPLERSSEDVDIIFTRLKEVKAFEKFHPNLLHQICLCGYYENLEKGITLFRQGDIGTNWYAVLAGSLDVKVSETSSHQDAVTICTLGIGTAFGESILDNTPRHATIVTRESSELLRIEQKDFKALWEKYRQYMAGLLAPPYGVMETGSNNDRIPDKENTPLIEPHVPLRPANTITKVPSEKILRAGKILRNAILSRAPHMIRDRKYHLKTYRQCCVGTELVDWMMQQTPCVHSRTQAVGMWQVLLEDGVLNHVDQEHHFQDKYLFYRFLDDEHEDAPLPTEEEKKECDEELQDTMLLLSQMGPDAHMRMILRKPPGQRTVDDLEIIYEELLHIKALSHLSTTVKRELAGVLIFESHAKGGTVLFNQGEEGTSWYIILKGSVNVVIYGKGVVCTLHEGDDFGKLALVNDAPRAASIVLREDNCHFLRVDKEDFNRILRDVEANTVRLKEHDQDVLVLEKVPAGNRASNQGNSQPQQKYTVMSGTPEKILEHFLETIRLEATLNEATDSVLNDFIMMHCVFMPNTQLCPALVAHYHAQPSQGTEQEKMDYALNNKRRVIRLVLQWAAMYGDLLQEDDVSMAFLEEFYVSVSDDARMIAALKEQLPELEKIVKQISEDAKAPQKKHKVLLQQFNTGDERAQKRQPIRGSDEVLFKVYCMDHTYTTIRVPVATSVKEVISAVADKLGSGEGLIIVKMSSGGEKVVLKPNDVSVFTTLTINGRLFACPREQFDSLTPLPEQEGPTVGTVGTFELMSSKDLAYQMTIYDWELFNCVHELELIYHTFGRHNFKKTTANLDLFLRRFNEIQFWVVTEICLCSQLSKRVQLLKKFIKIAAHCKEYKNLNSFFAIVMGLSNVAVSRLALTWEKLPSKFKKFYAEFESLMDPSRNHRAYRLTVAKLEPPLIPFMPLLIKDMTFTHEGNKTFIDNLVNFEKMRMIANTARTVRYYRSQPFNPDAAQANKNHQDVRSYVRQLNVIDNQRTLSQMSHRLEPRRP
Method in brief: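 Fluorescent exchange assay: 100 nM EPAC2 with 250 nM RAP1B-BODIPY-GDP and 50 uM GDP; compound added, 5 min at room temperature, then read (ex 480/em 540 nm) every 5 min for 30 min. Normalized to 6.5 mM cAMP agonist control.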
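Further: exchange makes BODIPY-GDP fluorescence drop when released from Rap1B; series mostly up to about 150 µM.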
On the % scale 0 is the no-effect control and ±100 the full control effect.

Compound | activation
CCCN(CCC)c1c([N+](=O)[O-])cc(S(N)(=O)=O)cc1[N+](=O)[O-] | inactive: -29.8%
C#CCOC(=O)C1=CCCN(C)C1 | inactive: -3.32% and inactive: 6.33% and inactive: -20.9%
S=C=S | inactive: -25.3%
CNC(C)CC1CCCCC1 (stereo unspecified) | inactive: -9.14%
CCS(=O)(=O)C(C)(C)S(=O)(=O)CC | inactive: -13%
CC[C@H]1C2CC3[C@@H]4N(C)c5ccccc5[C@]45C[C@@H](C2[C@H]5O)N3[C@@H]1O (stereo partly specified) | inactive: -4.23%
c1ccc(CCCN2CCN(CCOC(c3ccccc3)c3ccccc3)CC2)cc1 | inactive: -7.04% and inactive: 0.897% and inactive: -58.8%
C[C@@H](C(=O)OC1C[C@H]2CC[C@@H](C1)N2C)c1ccc(Br)cc1 (stereo partly specified) | inactive: 2.88%
CN1CCCC2(CCN(C(=O)Oc3ccccc3)CC2)C1 | inactive: -0.392%
CN(C)CCc1c[nH]c2cccc(OP(=O)(O)O)c12 | inactive: -2.47%
O=C(O)/C=C\C(=O)O | inactive: -3.21%
c1ccc(N2CC3(CCNCC3)C2)nc1 | inactive: 6.91%
CCS(=O)CCSP(=O)(OC)OC (stereo unspecified) | inactive: -17.9%
CCCn1c(C)c(C(=O)c2ccc3ccccc3c2)c2ccccc21 | inactive: -43.6%
C[C@]12CCC(=O)C=C1CC[C@@H]1[C@@H]2CC[C@@]2(C)[C@H]1CC[C@]2(C)O | inactive: 3.49% and inactive: -16.6%
CCC(CO)NC(=O)C1C=C2c3cccc4[nH]cc(c34)CC2N(C)C1 (stereo unspecified) | inactive: -7.16%
CCCN1CCc2cccc3c2C1Cc1ccc(O)c(O)c1-3 (stereo unspecified) | inactive: -1.17%
CCCC(=O)OCC[N+](C)(C)C | inactive: 8.61%
CN1Cc2c(ccc3c2OCO3)C2C(O)Cc3cc4c(cc3C21)OCO4 (stereo unspecified) | inactive: 2.91% and inactive: -1.28%
c1ccc(C2CC2)c(OCC2=NCCN2)c1 | inactive: -3.34% [middle of 4 runs]
CN1C2CC3CC1C(O3)C2O (stereo unspecified) | inactive: -19.5%
CC[C@H]1C[C@@H]2C[C@H]3c4[nH]c5ccc(OC)cc5c4CCN(C2)[C@@H]13 | inactive: -6.74%
C[C@]12CCC(=O)C(O)=C1CC[C@@H]1[C@@H]2CC[C@]2(C)C(=O)CC[C@@H]12 | inactive: -31.2%
O=C(CCl)c1ccc(Oc2ccc(C(=O)CCl)cc2)cc1 | inactive: -22%
ClCCN(CCCl)/C(=C\c1ccccc1)c1ccnc2ccccc12 | inactive: -5.17%
C[C@]12CCC3C(CC[C@]4(O)CC(O)CC[C@@]34C=O)[C@]1(O)CCC2C1=CC(=O)OC1 (stereo partly specified) | inactive: -5.33%
